Assay results published in PubChem BioAssay AID1460 (National Center for Advancing Translational Sciences (NCATS), 2008).
“And” between values parts separate entries of the source, which are not always exact repeats. Identical values can stand only once. Hit rate of the full screen: of about 270,000 compounds, about 5,800 (2.1%) were called active. The shares of active, inactive and inconclusive entries below differ from those in the screen. Calls follow the shape of the dose curve; as a rule, active = well fitted inhibition curve with a large enough effect; inconclusive = small, poorly fitted or top-dose-only effect; inactive = flat fitted curve, though single readings scatter. A potency beside an inconclusive call is a rough fit, not a confirmed value.

Molecular target: Microtubule-associated protein tau (Homo sapiens) (UniProt P10636)
UniProt P10636, sequence (P10636 whole entry, looked up): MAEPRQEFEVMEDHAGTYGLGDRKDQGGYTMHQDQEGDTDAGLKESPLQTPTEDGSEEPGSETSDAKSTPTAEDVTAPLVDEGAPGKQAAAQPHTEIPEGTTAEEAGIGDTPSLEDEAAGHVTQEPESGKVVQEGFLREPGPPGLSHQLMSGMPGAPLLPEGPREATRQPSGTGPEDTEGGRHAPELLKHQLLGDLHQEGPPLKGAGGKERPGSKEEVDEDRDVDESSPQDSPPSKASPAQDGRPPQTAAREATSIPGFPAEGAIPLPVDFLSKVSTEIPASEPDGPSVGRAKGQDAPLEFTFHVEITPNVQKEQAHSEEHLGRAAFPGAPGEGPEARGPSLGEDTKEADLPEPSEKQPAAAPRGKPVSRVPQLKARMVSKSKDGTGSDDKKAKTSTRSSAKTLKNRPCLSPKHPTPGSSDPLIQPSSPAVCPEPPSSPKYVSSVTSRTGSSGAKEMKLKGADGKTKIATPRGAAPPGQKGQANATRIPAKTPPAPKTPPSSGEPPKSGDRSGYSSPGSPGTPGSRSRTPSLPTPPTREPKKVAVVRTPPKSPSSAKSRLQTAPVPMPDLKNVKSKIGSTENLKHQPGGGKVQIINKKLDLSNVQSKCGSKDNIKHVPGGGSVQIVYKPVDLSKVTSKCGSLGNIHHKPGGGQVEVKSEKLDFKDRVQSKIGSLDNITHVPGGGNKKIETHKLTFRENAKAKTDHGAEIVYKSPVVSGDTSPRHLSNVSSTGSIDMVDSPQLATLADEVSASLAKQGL
Test: qHTS for Inhibitors of Tau Fibril Formation, Thioflavin T Binding; also: nearly all actives have a fitted effect of over 55% in size
Conditions: recombinant tau K18 P301L, heparin-induced fibrillization, ThT fluorescence; series mostly up to 57.4 µM
Outline: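 Fibril formation assay: tau K18 P301L at 15 uM with trace Alexa 594 label, heparin inducer 20 uM, pH 7 sodium acetate buffer, 37 C for 6 hr; endpoint ThT signal.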
Potency is read from the fitted curve at half-maximal effect; tags tell the direction and shape of the fitted curve.

SMILES	Potency
Cc1ccc(C(=O)Nc2cc3c(cc2N2CCCC2)n(C)c(=O)c(=O)n3C)cc1	inconclusive: 39.8 µM [inhibitor, single point]
COc1cc(NC(=O)COCc2cc(-c3ccc(F)cc3)on2)cc(OC)c1OC	inconclusive: 28.2 µM [inhibitor, partial curve]
O=C(Nc1ccc(Cl)c(-c2nc3cc(Cl)ccc3o2)c1)c1cc([N+](=O)[O-])ccc1N1CCOCC1	inactive
COc1ccc(NC(=O)CSc2ncnc3c2nnn3-c2ccc(F)cc2)c(OC)c1	inconclusive: 8.91 µM [inhibitor, partial curve]
CCOc1ccccc1C(=O)Nc1nc2c(s1)CC(C)CC2 (configuration not stated)	inconclusive: 3.16 µM [inhibitor, partial curve]
Cc1ccc(CNS(=O)(=O)c2ccc(-c3cc(C(F)(F)F)on3)s2)cc1	inactive
COc1ccc(C(=O)NCCCN2CCOCC2)cc1OC	inactive
CCOC(=O)C1CCCN(Cc2nc(N)nc(Nc3ccc(Cl)cc3)n2)C1 (configuration not stated)	inactive
CCOc1cccc(=O)c2c(C)oc(C)c12	inconclusive: 17.8 µM [inhibitor, single point]
CCOc1ccc(/C(C)=N/N2C(=O)C(CC(=O)Nc3ccc(OC)cc3[N+](=O)[O-])SC2=Nc2cccc(C)c2C)cc1 (configuration not stated)	inactive
N#CCCN(Cc1cccnc1)C(=S)NCc1ccco1	inconclusive: 25.1 µM [inhibitor, partial curve, poor fit]
CCN(CC)S(=O)(=O)c1ccc(C(=O)NCCSc2c[nH]c3ccccc23)cc1	inconclusive: 28.2 µM [inhibitor, partial curve, poor fit]
Cc1ccc(C(=O)Oc2coc(CSc3nnc(NC(=O)C4CC4)s3)cc2=O)cc1	inconclusive: 3.16 µM [inhibitor, full curve]
Cc1ccc(C(=O)Cn2c3c(sc2=N)CCCC3)cc1	inconclusive: 1.12 µM [inhibitor, full curve] and inconclusive: 10 µM [inhibitor, partial curve, poor fit]
CCCc1ccc(-c2cc(C(=O)NC3=NCCS3)c3ccccc3n2)cc1	inconclusive: 39.8 µM [inhibitor, single point]
CC(C)Nc1ncnc2c1cnn2-c1ccc(Cl)cc1	inactive
COc1ccc(NC(=O)CN(c2ccc(C)cc2)S(=O)(=O)c2cccc3nonc23)cc1OC	inactive
CCOc1ccc(NC(=O)CN(c2ccc(Cl)cc2C)S(=O)(=O)c2ccccc2)cc1	inactive
Nc1nnc(CC(=O)N/N=C/c2ccc(-c3ccccc3)o2)s1	inconclusive: 22.4 µM [inhibitor, single point]
NCCNc1ccc([N+](=O)[O-])c(NC2CC2)c1	inconclusive: 20 µM [inhibitor, single point]
Clc1ccc(-c2nc(NCCCN3CCOCC3)c3ccccc3n2)cc1	inconclusive: 39.8 µM [activator, single point]
O=C(Nc1ccc(OCc2cc(=O)n3c4c(sc3n2)CCCC4)cc1)c1ccccc1	inconclusive: 2 µM [inhibitor, full curve]
CC1CCc2nc3ncn(Cc4ccccc4F)c(=O)c3cc2C1 (configuration not stated)	inactive

SMILES	Potency
Cc1ccc(NC(=S)N2CCC(c3nc4ccccc4s3)CC2)cc1C	inactive
CCOC(=O)C1CCN(CC(=O)Nc2ccc(OC)c(Cl)c2)CC1	inactive
O=C(NNC(=S)Nc1ccccc1)c1ccc2ncccc2c1	inconclusive: 20 µM [inhibitor, partial curve]
CCOc1ccc(-c2cc3c(=O)n(CC(=O)NCc4ccc(Cl)cc4)ccn3n2)cc1	inactive
O=C(CCl)NCCN1C(=O)S/C(=C\c2cccnc2)C1=O	inconclusive: 25.1 µM [inhibitor, partial curve]
Cn1cc(C(=O)N2CCN(c3cccc(C(F)(F)F)c3)CC2)c2c3ccccc3n(C)c2c1=O	inconclusive: 28.2 µM [inhibitor, partial curve]
Cc1nn(C(C)C(=O)Nc2sc3c(c2C#N)CCCC3)c(C)c1[N+](=O)[O-] (configuration not stated)	inactive
Cc1ccccc1OCC(=O)NC(=S)Nc1ccc2c3c(cccc13)CC2	inactive
Cc1cc(C)nc(NN2C(=O)/C(=C/c3ccccc3)SC2=S)n1	inconclusive: 25.1 µM [inhibitor, partial curve, poor fit]
CN(c1ccccc1)S(=O)(=O)c1nnc(NC(=O)c2ccccc2)s1	inconclusive: 0.447 µM [inhibitor, full curve]
CC(C)n1cnc(S(=O)(=O)N2CCCC(C(=O)NCc3ccccc3Cl)C2)c1 (configuration not stated)	inactive
Cc1ccc(-n2nc3cc(C)c(NC(=S)NC(=O)/C=C/c4ccco4)cc3n2)cc1	inconclusive: 15.8 µM [inhibitor, partial curve]
COc1ccccc1[C@H]1C(c2ccc(F)cc2)=NN(c2ccccc2)[C@@H]1CO	inconclusive: 11.2 µM [inhibitor, full curve, poor fit]
CCOC(=O)c1c(-c2ccccc2)csc1NC(=O)c1cc(-c2ccc(F)cc2)on1	inconclusive: 35.5 µM [inhibitor, single point]
CCOc1ccc(NC(=O)c2cnc(N3CCCCC3)c3ccccc23)cc1	inconclusive: 15.8 µM [inhibitor, partial curve]
COc1ccc(OC(=O)c2c(C)nn(-c3ccccc3)c2C)cc1	inconclusive: 39.8 µM [inhibitor, single point]
CCCOc1c(Cl)cc(C(=O)N(Cc2cccc(OC)c2)C2CCS(=O)(=O)C2)cc1Cl (configuration not stated)	inconclusive: 39.8 µM [inhibitor, single point]
Cc1cc(C)c2c(CC(=O)O)c(C)[nH]c2c1	inconclusive: 28.2 µM [inhibitor, partial curve]
COc1ccc(NC(=O)Cn2cnc3c(oc4ccccc43)c2=O)cc1OC	inactive
Cc1[nH]n(-c2ccccc2)c(=O)c1N=O	inactive
COc1ccc2nc(Nc3ccccc3OC)sc2c1	active: 12.6 µM
CCOC(=O)c1cnc(SC2CC(=O)N(c3ccc(OC)c(OC)c3)C2=O)nc1N (configuration not stated)	inactive
COc1ccc2[nH]c(=O)c(CN(CCc3ccccc3)Cc3nnnn3CC3CCCO3)cc2c1 (configuration not stated)	inconclusive: 22.4 µM [inhibitor, single point]

SMILES	Potency
NC(=O)CC(NC(=O)Cc1cccc2ccccc12)c1ccc(NC2CCCCCC2)c([N+](=O)[O-])c1 (configuration not stated)	inconclusive: 17.8 µM [inhibitor, partial curve]
Cc1ccc(-n2c(C)cc(/C=N/NC(N)=S)c2C)cc1	inconclusive: 20 µM [inhibitor, single point]
Cc1cccc2c(=O)cc(CSc3ccccc3NC(=O)c3cccc(F)c3)[nH]c12	inactive
C=CCN1C(=O)/C(=C/c2ccc(O)c(OC)c2)S/C1=N/c1nccs1	inconclusive: 35.5 µM [inhibitor, single point]
CCOc1ccccc1NC(=O)Cn1cc(C(=O)c2ccc(Cl)cc2)c(=O)c2ccc(C)nc21	inconclusive: 15.8 µM [inhibitor, partial curve]
COc1ccc(C(CNC(=O)/C=C/c2c(Cl)nc3ccccn23)N(C)C)cc1 (configuration not stated)	inconclusive: 17.8 µM [inhibitor, partial curve]
Cc1c(C(=O)OCC(=O)Nc2ccc3c(c2)OCO3)cccc1[N+](=O)[O-]	inconclusive: 14.1 µM [inhibitor, partial curve]
N#Cc1c(Sc2ncc(C(F)(F)F)cc2Cl)nsc1C/C=N\OCc1ccccc1Br	inconclusive: 17.8 µM [inhibitor, partial curve]
C=CC1=C(C)/C(=C/c2[nH]c(Cc3[nH]c(/C=C4\NC(=O)C(C)=C4C=C)c(C)c3CCC(=O)O)c(CCC(=O)O)c2C)NC1=O	active: 10 µM
Cc1ccc(-n2c(N)c(C(=O)Nc3c(C)n(C)n(-c4ccccc4)c3=O)c3nc4ccccc4nc32)cc1	inconclusive: 20 µM [inhibitor, partial curve]
CN(C)CCCN(C(=O)c1ccc2c(c1)OCCO2)c1nc2ccccc2s1	inactive
COc1cccc(CNC(=O)CSc2c3c(nc4cc(Cl)ccc24)CCCC3)c1	inconclusive: 10 µM [inhibitor, partial curve, poor fit]
Cc1cc(C(=O)Nc2ccc(C(C)C)cc2)c2c(C)nn(-c3ccccc3)c2n1	inconclusive: 0.0708 µM [inhibitor, full curve, poor fit]
O=C(Nc1nc2c(s1)CN(Cc1ccccc1)CC2)C1CCC1	inconclusive: 28.2 µM [inhibitor, partial curve]
CCOCCCNc1nc2c(C)cccn2c(=O)c1/C=C1\SC(=S)N(CC(C)C)C1=O	inactive
COC(=O)Cn1c(=O)c2cccn2c2cccnc21	inactive
COc1cc2c(cc1OC)CN(Cc1cc(=O)oc3cc(C)c(C)cc13)CC2	inconclusive: 28.2 µM [inhibitor, single point]
COc1cccc(CC2(CO)CCCN(Cc3cc(F)ccc3-n3cccn3)C2)c1 (configuration not stated)	inactive
CCOc1ccc(C(=O)c2c(N)c(-c3nc(-c4ccc5c(c4)OCO5)cs3)c3ccccn23)cc1	inconclusive: 0.631 µM [inhibitor, full curve]
C=CCSc1nnc(-c2cc3c(s2)-c2ccccc2CC3)o1	inconclusive: 11.2 µM [inhibitor, partial curve]
CCCc1c(OCCCOc2ccc(OCC(=O)O)cc2)ccc(CC=O)c1O	inconclusive: 8.91 µM [inhibitor, partial curve, poor fit]
